Results published in the supplement of paper PMC9151546.
Single values are uncertain, as repeats are few or missing.

Assays:
CHO-K1 [1] = assay: micronucleus frequency (% of nucleated events); higher = more micronuclei (genotoxic)
CHO-K1 [2] = assay: hypodiploid nuclei frequency (% of nucleated events); higher = more hypodiploid events (aneugenic)
Experimental: (§1)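 Flow-cytometric in vitro micronucleus assay (Litron MicroFlow) in CHO-K1 cells in 96-well plates, 19 concentrations (4.5-200 µM, n=1 per concentration). Without S9, cells were exposed for 24 h and sampled at 48 h. With Aroclor 1254-induced rat liver S9, cells were exposed for 3-4 h and sampled at 27-28 h. Read-outs are %MN and %hypodiploid nuclei relative to nucleated events, and relative survival as the nuclei-to-bead ratio versus the 1% DMSO vehicle control (x100).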

CHO-K1 [3] = assay: relative survival (nuclei to bead ratio vs DMSO control) (% of vehicle control); higher = more surviving cells
Experimental: as §1
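For hypodiploid nuclei frequency (% of nucleated events) in this document: hypodiploid nuclei gated on a flow cytometer with 488 nm excitation after SYTOX Green staining, cultures at 37 °C, positive controls vinblastine without S9 and cyclophosphamide with S9.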
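For micronucleus frequency (% of nucleated events) in this document: cells lysed with nuclei stained by SYTOX Green, then micronucleus-gated events counted against nucleated events by flow cytometry with 488 nm excitation.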
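For relative survival (nuclei to bead ratio vs DMSO control) in this document: Lysed-cell nuclei stained with SYTOX Green and counted against counting beads by flow cytometry at 488 nm excitation, with vinblastine (no S9) and cyclophosphamide (plus S9) as positive controls.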

CCOP(=S)(OCC)Oc1nc(Cl)c(Cl)cc1Cl [Chlorpyrifos]
Details	hypodiploid nuclei frequency, CHO-K1 [2] [%]	micronucleus frequency, CHO-K1 [1] [%]	relative survival, CHO-K1 [3]
concentration: 4.5 (µM), S9 metabolic activation: with S9, exposure time: 3-4 hours	0.26	1.62	86.4
concentration: 4.5 (µM), S9 metabolic activation: without S9, exposure time: 24 hours	0.4	2.62	99.5
concentration: 5.63 (µM), S9 metabolic activation: with S9, exposure time: 3-4 hours	0.1	1.22	101
concentration: 5.63 (µM), S9 metabolic activation: without S9, exposure time: 24 hours	0.88	2.46	102
concentration: 7.04 (µM), S9 metabolic activation: with S9, exposure time: 3-4 hours	0.14	1.34	82.3
concentration: 7.04 (µM), S9 metabolic activation: without S9, exposure time: 24 hours	0.68	2.38	97
concentration: 8.8 (µM), S9 metabolic activation: with S9, exposure time: 3-4 hours	0.26	1.36	92.3
concentration: 8.8 (µM), S9 metabolic activation: without S9, exposure time: 24 hours	0.52	2.92	94.6
concentration: 11 (µM), S9 metabolic activation: with S9, exposure time: 3-4 hours	0.18	1.58	92.3
concentration: 11 (µM), S9 metabolic activation: without S9, exposure time: 24 hours	0.44	2.8	115
concentration: 13.7 (µM), S9 metabolic activation: with S9, exposure time: 3-4 hours	0.2	1.56	82.3
concentration: 13.7 (µM), S9 metabolic activation: without S9, exposure time: 24 hours	0.52	2.46	101
concentration: 17.2 (µM), S9 metabolic activation: with S9, exposure time: 3-4 hours	0.16	1.82	94.2
concentration: 17.2 (µM), S9 metabolic activation: without S9, exposure time: 24 hours	0.7	2.64	104
concentration: 21.5 (µM), S9 metabolic activation: with S9, exposure time: 3-4 hours	0.22	1.34	112
concentration: 21.5 (µM), S9 metabolic activation: without S9, exposure time: 24 hours	0.56	1.94	89.8
concentration: 26.8 (µM), S9 metabolic activation: with S9, exposure time: 3-4 hours	0.22	2.14	93.5
concentration: 26.8 (µM), S9 metabolic activation: without S9, exposure time: 24 hours	0.98	2.02	115
concentration: 33.6 (µM), S9 metabolic activation: with S9, exposure time: 3-4 hours	0.36	1.9	101
concentration: 33.6 (µM), S9 metabolic activation: without S9, exposure time: 24 hours	0.44	1.7	118
concentration: 41.9 (µM), S9 metabolic activation: with S9, exposure time: 3-4 hours	0.24	1.68	82.8
concentration: 41.9 (µM), S9 metabolic activation: without S9, exposure time: 24 hours	0.78	1.88	111
concentration: 52.4 (µM), S9 metabolic activation: with S9, exposure time: 3-4 hours	0.24	2.12	89.1
concentration: 52.4 (µM), S9 metabolic activation: without S9, exposure time: 24 hours	0.6	2.06	93.7
concentration: 65.5 (µM), S9 metabolic activation: with S9, exposure time: 3-4 hours	0.44	2.68	65.9
concentration: 65.5 (µM), S9 metabolic activation: without S9, exposure time: 24 hours	0.96	2.1	101
concentration: 81.9 (µM), S9 metabolic activation: with S9, exposure time: 3-4 hours	0.34	2.5	57.8
concentration: 81.9 (µM), S9 metabolic activation: without S9, exposure time: 24 hours	1.1	2.14	97.5
concentration: 102 (µM), S9 metabolic activation: with S9, exposure time: 3-4 hours	0.36	2.08	61.3
concentration: 102 (µM), S9 metabolic activation: without S9, exposure time: 24 hours	1.38	3.5	96
concentration: 128 (µM), S9 metabolic activation: with S9, exposure time: 3-4 hours	0.38	2.76	65
concentration: 128 (µM), S9 metabolic activation: without S9, exposure time: 24 hours	1.16	2.98	98
concentration: 160 (µM), S9 metabolic activation: with S9, exposure time: 3-4 hours	0.32	1.96	70.9
concentration: 160 (µM), S9 metabolic activation: without S9, exposure time: 24 hours	1.54	3	75.2
concentration: 200 (µM), S9 metabolic activation: with S9, exposure time: 3-4 hours	0.22	1.66	56
concentration: 200 (µM), S9 metabolic activation: without S9, exposure time: 24 hours	1.22	3.06	57.2

O=C(O)c1cc(/N=N/c2ccc(S(=O)(=O)Nc3ccccn3)cc2)ccc1O [Sulfasalazine]
Details	hypodiploid nuclei frequency, CHO-K1 [2] [%]	micronucleus frequency, CHO-K1 [1] [%]	relative survival, CHO-K1 [3]
concentration: 4.5 (µM), S9 metabolic activation: with S9, exposure time: 3-4 hours	0.26	0.92	130
concentration: 4.5 (µM), S9 metabolic activation: without S9, exposure time: 24 hours	0.66	1.34	109
concentration: 5.63 (µM), S9 metabolic activation: with S9, exposure time: 3-4 hours	0.2	1	104
concentration: 5.63 (µM), S9 metabolic activation: without S9, exposure time: 24 hours	0.46	1.24	93.6
concentration: 7.04 (µM), S9 metabolic activation: with S9, exposure time: 3-4 hours	0.28	1.18	92.7
concentration: 7.04 (µM), S9 metabolic activation: without S9, exposure time: 24 hours	0.46	1.08	113
concentration: 8.8 (µM), S9 metabolic activation: with S9, exposure time: 3-4 hours	0.26	0.88	112
concentration: 8.8 (µM), S9 metabolic activation: without S9, exposure time: 24 hours	0.72	1.12	102
concentration: 11 (µM), S9 metabolic activation: with S9, exposure time: 3-4 hours	0.22	1.48	89.3
concentration: 11 (µM), S9 metabolic activation: without S9, exposure time: 24 hours	0.66	1.96	85.6
concentration: 13.7 (µM), S9 metabolic activation: with S9, exposure time: 3-4 hours	0.2	1.14	93.8
concentration: 13.7 (µM), S9 metabolic activation: without S9, exposure time: 24 hours	0.58	1.38	86.6
concentration: 17.2 (µM), S9 metabolic activation: with S9, exposure time: 3-4 hours	0.12	1.28	117
concentration: 17.2 (µM), S9 metabolic activation: without S9, exposure time: 24 hours	0.52	1.5	91.5
concentration: 21.5 (µM), S9 metabolic activation: with S9, exposure time: 3-4 hours	0.2	1.34	98.2
concentration: 21.5 (µM), S9 metabolic activation: without S9, exposure time: 24 hours	0.46	1.7	129
concentration: 26.8 (µM), S9 metabolic activation: with S9, exposure time: 3-4 hours	0.16	1.1	123
concentration: 26.8 (µM), S9 metabolic activation: without S9, exposure time: 24 hours	0.66	1.16	100
concentration: 33.6 (µM), S9 metabolic activation: with S9, exposure time: 3-4 hours	0.24	1.42	135
concentration: 33.6 (µM), S9 metabolic activation: without S9, exposure time: 24 hours	0.5	1.42	86.6
concentration: 41.9 (µM), S9 metabolic activation: with S9, exposure time: 3-4 hours	0.2	1.54	128
concentration: 41.9 (µM), S9 metabolic activation: without S9, exposure time: 24 hours	0.66	1.54	89.9
concentration: 52.4 (µM), S9 metabolic activation: with S9, exposure time: 3-4 hours	0.22	1.12	121
concentration: 52.4 (µM), S9 metabolic activation: without S9, exposure time: 24 hours	0.54	1.36	101
concentration: 65.5 (µM), S9 metabolic activation: with S9, exposure time: 3-4 hours	0.24	1.42	112
concentration: 65.5 (µM), S9 metabolic activation: without S9, exposure time: 24 hours	0.62	1.6	103
concentration: 81.9 (µM), S9 metabolic activation: with S9, exposure time: 3-4 hours	0.16	1.12	121
concentration: 81.9 (µM), S9 metabolic activation: without S9, exposure time: 24 hours	0.6	1.64	84.3
concentration: 102 (µM), S9 metabolic activation: with S9, exposure time: 3-4 hours	0.22	1.62	121
concentration: 102 (µM), S9 metabolic activation: without S9, exposure time: 24 hours	0.6	1.66	94.7
concentration: 128 (µM), S9 metabolic activation: with S9, exposure time: 3-4 hours	0.2	1.5	90.5
concentration: 128 (µM), S9 metabolic activation: without S9, exposure time: 24 hours	0.62	1.44	87.5
concentration: 160 (µM), S9 metabolic activation: with S9, exposure time: 3-4 hours	0.16	1.26	68.5
concentration: 160 (µM), S9 metabolic activation: without S9, exposure time: 24 hours	0.98	1.96	87
concentration: 200 (µM), S9 metabolic activation: with S9, exposure time: 3-4 hours	0.1	1.12	95.6
concentration: 200 (µM), S9 metabolic activation: without S9, exposure time: 24 hours	1.24	1.68	89
